Measured values from PubChem BioAssay AID1347073 (National Center for Advancing Translational Sciences (NCATS), 2019).
The campaign covered roughly 45,000 compounds. About 200 (0.44%) were called active. Not shown: some 7% with an inconclusive outcome. Calls follow the shape of the dose curve; as a rule, active = well fitted activation curve with a large enough effect; inconclusive = small, poorly fitted or top-dose-only effect; inactive = no such curve, though single readings can be large or run the other way. This is one part of the list.

Assay: qHTS of TDP-43 Inhibitors: NCGC Sytravon Library Screen; also: 0% is about no effect; nearly all actives have a fitted effect of over 55% in size
Conditions: yeast TDP-43 toxicity rescue, BacTiter-Glo growth, 24 h; series mostly up to 46.1 µM; growth rescue (activation): at the top concentration
Procedure, shortened: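 TDP-43-expressing yeast, pregrown in raffinose, seeded at OD600 0.02 in galactose medium with compound for 24 hr at 30 deg C. Growth read by BacTiter-Glo luminescence, so rescue of toxicity appears as activation.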

SMILES	growth rescue (activation)
COCCN(CCOC)S(=O)(=O)c1ccc(C(=O)Nc2ccc([N+](=O)[O-])cc2OC)cc1	inactive: 13.1%
O=S(=O)(NCCCN1CCOCC1)c1ccc(Cl)cc1	inactive: 1.7%
O=C(NC1(C(F)(F)F)NC(=O)N(c2ccccc2F)C1=O)c1ccncc1 (centres undefined)	inactive: 11.4%
Cc1cc(C(=O)NN=C(CCC(=O)O)c2cccs2)c(C)o1	inactive: 4.7%
O=C(N/N=C/c1ccc[nH]1)c1ccccc1OCc1ccc(F)cc1	inactive: -10.8%
COc1ccc(S(=O)(=O)Nc2ccc(S(=O)(=O)NCC3CCCO3)cc2)cc1 (centres undefined)	inactive: 3.2%
Cc1ccc(S(=O)(=O)N2CCOCC2)cc1C(=O)N1CCN(c2ccc(C(F)(F)F)cn2)CC1	inactive: -0.929%
Cc1[nH]c2ccccc2c1C(=O)COC(=O)C1CC(O)CN1S(=O)(=O)c1ccc(Cl)cc1 (centres undefined)	inactive: 2.89%
O=C(NCCCN1CCOCC1)C1CC(=O)N(c2ccccc2)C1 (centres undefined)	inactive: 17.3%
COc1ccc2[nH]c(=O)c(CN(Cc3nnnn3CCc3ccccc3)CC3CCCO3)cc2c1 (centres undefined)	inactive: 0.1%
COc1ccc(-n2nc(C(=O)NCC(=O)N3CCN(Cc4ccccc4)CC3)c3ccccc3c2=O)c(OC)c1	inactive: 21.7%
N#C/C(=C\c1ccncc1)c1nc2ccccc2c(=O)[nH]1	inactive: -1.17%
CCOc1ccc(C(=O)CCN2CCCCC2)cc1	inactive: 19.8%
Cc1ccc(CSCCNC(=O)c2ccc(C)cc2)cc1	inactive: -40.7%
CCOC(=O)c1cc(-c2ccccc2)n(CC(=O)Nc2ccc(OCC)cc2)c1C	inactive: 16.8%
CN(CCC1CCCCO1)C(=O)c1cc(COc2ccc(F)cc2F)on1 (centres undefined)	inactive: 18.5%
NC(=S)Nc1cnc2ccccc2c1	inactive: -0.664%
COc1cc(/C=N/Nc2ccccc2)ccc1OC(=O)c1cccs1	inactive: 27.8%
COc1cccc(C2C3=C(CCCC3=O)Nc3[nH]n(-c4ccccc4)c(=O)c32)c1 (centres undefined)	inactive: 9.83%
CCCOc1ccc(N2C(=O)CC(NCc3cccnc3)C2=O)cc1 (centres undefined)	inactive: -4.87%
COc1ccc(N2CCN(C(=O)c3cc(=O)c4cc(C)c(C)cc4o3)CC2)cc1	inactive: 3.57%
Cc1ccccc1CC1C(=O)Nc2ccc(Br)cc21 (centres undefined)	inactive: 22.7%
O=S(=O)(NCCCc1ccccc1)c1cccc2nsnc12	inactive: 18.1%
CN(C)S(=O)(=O)c1cc(NC(=O)c2ccc(-n3ccnc3)c([N+](=O)[O-])c2)ccc1Cl	inactive: 10%
Cc1nn(-c2ccccc2)c(C)c1/C=N/NC(=O)CSc1nnc(SCc2ccccc2Cl)s1	inactive: 2.52%
CCOc1ccc(CC(=NCCO)C2=C(O)CC(C)(C)CC2=O)cc1OCC	inactive: -0.515%

SMILES	growth rescue (activation)
COc1ccc(NC(=O)c2cccnc2SC)cc1OC	inactive: 11.1%
Cc1ccc(S(=O)(=O)N(CC(O)CN2C(=O)NC(C)(C)C2=O)c2cccc(C)c2)cc1 (centres undefined)	inactive: 26.2%
CC12CCC(C(=O)N3CCC(Cc4ccccc4)CC3)(C(=O)C1=O)C2(C)C (centres undefined)	inactive: -6.38%
COc1cccc2c(N/N=C/c3ccc(O)c(O)c3)cc(C)nc12	inactive: 13%
O=C(/C=C/c1ccc(S(=O)(=O)N2CCOCC2)cc1)N1CCN(c2ccc(F)cc2)CC1	inactive: -50.5%
O=C(COC(=O)c1ccco1)NCc1ccc(Cl)cc1Cl	inactive: 37.3%
CCOc1ccc(-c2nnc(SCC(=O)O)n2Cc2ccccc2)cc1	inactive: 4.87%
Cc1oc(C(=O)O)cc1CSCc1ccoc1C(=O)O	inactive: 4.06%
COc1ccc2nc(NC(=O)CS(=O)(=O)c3ccc(C)cc3)sc2c1	inactive: 6.3%
COc1ccc(/C=C(\C#N)c2nc3ccccc3[nH]2)cc1O	inactive: 3.54%
CC1CCCC(NC(=O)CSc2n[nH]c(=O)n2Cc2ccccc2)C1C (centres undefined)	inactive: -21.6%
COC(=O)C1C(O)=C(C=NCC(C)N=CC2=C(O)C(C(=O)OC)C(C)(C)CC2=O)C(=O)CC1(C)C (centres undefined)	inactive: 14.9%
Fc1cccc(Cl)c1-c1nnc2ccc(C(F)(F)F)cn12	inactive: 11.7%
CC1=C(C(=O)OCCBr)C(c2cccc3ccccc23)NC(=O)N1 (centres undefined)	inactive: 12.6%
COc1ccc(NC(=O)[C@@H]2O[C@H](CO)[C@H](O)[C@H](O)[C@H]2O)cc1F	inactive: 6.75%
CCC(C)NC(=O)C1CCN(S(=O)(=O)N2CCOCC2)CC1 (centres undefined)	inactive: 2.36%
Cc1ccnc(NS(=O)(=O)c2ccc(NS(=O)(=O)c3ccc([N+](=O)[O-])cc3)cc2)n1	inactive: -21.2%
Cc1cc(C)cc(C(=O)NCC(=O)OCc2cc([N+](=O)[O-])cc3c2OCOC3)c1	inactive: 15.9%
O=C(NNC(=O)C1CC1)c1cc(=O)[nH]c2ccccc12	inactive: -17.8%
C=CCN(CC=C)C(=O)CN1C(=O)NC(C)(c2ccc3cc(OC)ccc3c2)C1=O (centres undefined)	inactive: 1.12%
CC(=O)Nc1ccc(NC(=O)c2ccccc2Sc2ccc([N+](=O)[O-])cc2Cl)cc1	inactive: 7.48%
O=C(CN(Cc1ccco1)C(=O)CNS(=O)(=O)c1ccc(Cl)cc1)NCC1CCCO1 (centres undefined)	inactive: 10.8%
COc1ccccc1N1CCN(c2ccnc3cc(Cl)ccc23)CC1	inactive: 9.24%
Cc1cc2c(cc1C)[n+](C)cn2CC(O)COCC1CC=CCC1 (centres undefined)	inactive: -4.1%
COc1ccc2cc(C)c3nnc(SCC(=O)Nc4cc(OC)c(OC)cc4C(=O)O)n3c2c1	inactive: -12%
O=C(Nc1ccc(S(=O)(=O)N2CCCCC2)cc1)c1ccco1	inactive: 12.1%

SMILES	growth rescue (activation)
O=C(NCc1ccccn1)c1coc(=O)c(Br)c1	inactive: -2.9%
O=C(CCN1C(=O)/C(=C\c2ccccc2)SC1=S)NNC(=O)c1ccccc1O	inactive: 9.76%
CC(C)(C)c1ccccc1OCC(=O)Nc1ccccc1C(=O)NCc1cccnc1	inactive: -1.02%
CCCN1C(=O)c2ccc(C(=O)Nc3ccccc3C(=O)O)cc2C1=O	inactive: -31.8%
CCOCCCNC(=O)c1ccc(Cn2c(=O)[nH]c3ccsc3c2=O)cc1	inactive: 12.6%
O=C(CN1C(=O)NC2(CCCCC2)C1=O)Nc1ccc(N2CCOCC2)cc1	inactive: -9.6%
CN(C)CC1CCCCC1OC(=O)/C=C/c1ccccc1 (centres undefined)	inactive: 4.24%
O=C(NCc1ccc(F)cc1)c1cc(C2CCCCN2C(=O)CCCc2ccccc2)on1 (centres undefined)	inactive: 16.2%
Cc1cccc(C)c1NC(=O)[C@@]1(CC(=O)O)CC(/C=C/c2ccccc2)=NO1	inactive: -9.23%
CCc1ccc(NC(=O)CN2C(=O)C(c3ccc(F)cc3)=NC2(C)C)cc1	inactive: 42.1%
CC1(C2CC2)NC(=O)N(CC(=O)Nc2ccc(SC(F)F)cc2)C1=O (centres undefined)	inactive: 8%
CCCc1[nH]n(-c2ccc(F)cc2)c(=O)c1C=Nc1cccc(F)c1	inactive: 14.3%
CCC(C)C(=O)Nc1ccc([N+](=O)[O-])cc1OC (centres undefined)	inactive: 13.8%
Nc1nc(SCC(=O)c2cccs2)n[nH]1	inactive: -4.43%
Cc1ccc(NC(=O)COC(=O)CCOc2ccccc2C)cc1	inactive: 8.7%
Cc1ccc(Cl)c(NC(=O)CSc2cccc[n+]2[O-])c1Cl	inactive: -8.15%
COC(=O)c1cc(OC)c(OC)cc1NCC(=O)Nc1ccc(OC)c(OC)c1	inactive: -1.23%
O=C(NC1CCCCC1)C1(S(=O)(=O)c2ccc(Cl)cc2)CC1	inactive: 1.67%
COc1ccc(N(CC(=O)NCCC2=CCCCC2)S(=O)(=O)c2ccccc2)c(OC)c1	inactive: 16.2%
CCSc1ncc(Cl)c(C(=O)N(Cc2ccc(N(C)C)cc2)Cc2ccco2)n1	inactive: 9.96%
COC(=O)CNc1nc(-c2ccncc2)nc2ccccc12	inactive: 35.7%
COc1ccc(-c2noc(-c3ccccc3-c3ccccc3)n2)cc1OC	inactive: 31.2%
COc1ccc(N(CCCN2C(=O)c3cccc4cccc(c34)C2=O)C(=O)c2ccncc2)cc1	inactive: 5.96%
COc1c(/C=N/NC(=O)c2ccccc2O)c(CCN(C)C(C)=O)cc2c1OCO2	inactive: 17.1%
CCCS(=O)(=O)NC(=O)C1(C)CCN(C(=O)Cc2ccc3ccccc3c2)C1 (centres undefined)	inactive: -9.44%
CCn1c(SCc2nc3scc(-c4ccccc4)c3c(=O)[nH]2)nnc1-c1cccs1	inactive: 17%

SMILES	growth rescue (activation)
COC(=O)N/N=C/c1ccc(OS(=O)(=O)c2ccc(C)cc2)c(OC)c1	inactive: 3.72%
CCC(CC)=NNc1ccc([N+](=O)[O-])cc1[N+](=O)[O-]	inactive: 4.69%
COc1ccc2oc(C(=O)OCC(=O)/C(C#N)=C(\C)N)c(C)c2c1	inactive: -19.3%
NS(=O)(=O)c1ccc(CCNC(=O)CN2CCC(Cc3ccccc3)CC2)cc1	inactive: 5.59%
CN(C)/C=N/c1sc2c(c1C#N)CCCCC2	inactive: -9.85%
CC(=O)Nc1cccc(NC=C(C#N)C#N)c1	inactive: -1.34%
Cc1oc(-c2cc(F)ccc2F)nc1CN1CCN(c2cnccn2)CC1	inactive: 6.02%
CC1CCN(c2ccc(NC(=O)c3ccccc3[N+](=O)[O-])cc2)CC1	inactive: -19%
CCN1CCN(S(=O)(=O)c2ccc(OC)c3ccccc23)CC1	inactive: 8.07%
CC(C)[C@H](NC(=O)c1ccc(Cl)cc1Cl)C(=O)NNC(=O)c1ccco1	inactive: -11.2%
CC(=O)Nc1ccc(S(=O)(=O)N(C)CC(=O)OCC(=O)Nc2ccc3c(c2)OCO3)cc1	inactive: 2.76%
CCC1CCCCN1C(=O)Nc1cc(Cl)ccc1OC (centres undefined)	inactive: 9.34%
Cc1ccc(Cl)cc1NC(=O)N1CCC2(CC1)Oc1ccccc1C(=O)N2Cc1ccccc1F	inactive: -4.87%
COc1ccc(CC(=O)Nc2ccc(NC(=O)c3ccccc3F)cc2)cc1	inactive: 2.31%
O=C(CSc1ccccc1C(=O)N1CCN(c2ccc([N+](=O)[O-])cc2)CC1)N1CCCC1	inactive: 21.1%
COc1ccccc1CNC(=O)C1CCC(CNS(=O)(=O)c2cccs2)CC1 (centres undefined)	inactive: 3.02%
Cc1ccc(OCC(=O)NCCc2nc3ccccc3[nH]2)c(C)c1	inactive: 21.2%
COC(=O)c1ccc(CNC(=O)c2ccc(S(=O)(=O)N3CCCCCC3)cc2)cc1	inactive: 4.42%
CC(=O)c1c(C)oc2ccc(N(C(=O)Oc3ccccc3)S(=O)(=O)c3ccccc3)cc12	inactive: -11.3%
CCCCNC(=O)C1CC(=O)N(CCC(C)C)C1 (centres undefined)	inactive: 17.9%
CN1CCN(NC(=O)c2cc(S(=O)(=O)Nc3ccc(Cl)cc3)ccc2Cl)CC1	inactive: 33.1%
O=C(N/N=C\C=C\c1ccco1)c1cncc(Br)c1	inactive: 7.78%
O=C(Cn1cc2c(n1)CCCCC2)Nc1c(F)cc(F)cc1Br	inactive: 16%
O=C(COC(=O)C12CC3CC(CC(C3)C1)C2)Nc1nc2c(F)c(F)c(F)cc2s1	inactive: 12.8%
O=C(O)c1cc(S(=O)(=O)NC2CCCc3ccccc32)ccc1O (centres undefined)	inactive: 18.8%
CCSc1nc(-c2ccccc2)nc2c1CCCC2	inactive: 12.3%
